Experimental data from the supplement of paper PMC10126150.
Values marked as one replicate rest on one cluster of the flow cell; about a third of the high ones do not repeat.

System: ATP
Assay: switch fluorescence ratio, 500 uM ATP over buffer (Cy3 cluster intensity, sum of 5 cycles each) (fold (ratio)); higher = stronger signal-on switching upon ATP binding; sequences stand for … in TCGTCGGCAGCGTCAGATGTGTATAAGAGACAGTTTTTTTTTTTTTTTTTTTTTTTTT…TC
Details: aptamer strand: ATP DNA aptamer (quencher-CACCTGGGGGAGTATTGCGGAGGAAGG + anchor), 100 nM annealed; ATP concentration: 500 uM; one replicate
Summary of the method: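 Five buffer/ATP imaging cycles were run on Cy3-labelled switching-strand clusters on a modified Illumina MiSeq flow-cell, with NaOH stripping and re-annealing between cycles. In each cycle, clusters annealed to 100 nM quencher-labelled ATP aptamer were imaged in selection buffer, then after 15 min with 500 uM ATP at 22 °C. Per cluster, the fluorescence ratio is summed target-cycle over summed buffer-cycle Cy3 intensity, averaged per switch-domain sequence. Only clusters within 100-1000 RFU were kept.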
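Note: ATP exposure 15 min at 22 °C before imaging.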

Row | Sequence | switch fluorescence ratio
1 | AACCATCGCG | 0.976
2 | AAGTCACTCG | 1.06
3 | AGGGTGTTTC | 0.993
4 | GACTTCGGCC | 1.02
5 | CAGGAGTTG | 1.01
6 | GGTGCAGCAA | 1.04
7 | ACTTTGAAAC | 1.04
8 | GTAGCCAGT | 0.975
9 | TCAGGACCAT | 1.01
10 | GGATTAACGC | 1.02
11 | GCTTTATGAC | 1.04
12 | CCAGAGTCCT | 1.02
13 | ACTAGATAAA | 1.02
14 | TCCGGGCCTG | 1.01
15 | GCTACTCTGC | 1.03
16 | CACGTAGGTA | 1.1
17 | CTGGTAGCGA | 2.06
18 | ACTGTAGTTA | 1.12
19 | GAGCGGCTGT | 1.04
20 | AATGGGGTGG | 0.97
21 | CACGACTCTC | 1.03
22 | GGACGATCAC | 1.64
23 | TATTTATTAA | 1

Row | Sequence | switch fluorescence ratio
24 | TACGTTGATC | 1.03
25 | GAGGTCTAAA | 0.988
26 | AGGTTCTTTC | 0.977
27 | AGATAGTTCG | 0.985
28 | TTCAGGCTGG | 0.983
29 | TGAGGGGCAC | 0.989
30 | AGAGCGTATG | 1.01
31 | AATCTTGAGA | 0.944
32 | CCGTGTTACC | 1.82
33 | ATGAGGCATG | 1.03
34 | GGTCCGGTTT | 1.02
35 | AGGAAAAAT | 0.983
36 | TGTGTGGGCC | 0.953
37 | ACATCCGGAA | 4.57
38 | TTTAAAGAT | 0.969
39 | AGCAAGTTCG | 1.01
40 | AAAATCCGG | 1.01
41 | GTTCGCTGG | 1.14
42 | GTTAGGTCTG | 1.02
43 | AAATTATAG | 1.01
44 | ACCCTCTGCT | 1.27
45 | ACATGTAGGC | 1
46 | TCCTATGACC | 0.991

Row | Sequence | switch fluorescence ratio
47 | AATCTGCATC | 1.71
48 | AAAGATCAT | 1.02
49 | CACGGATGTG | 1.04
50 | GCCAAACCAG | 0.958
51 | TGCGTCATCG | 1.02
52 | AAGTATCCA | 0.98
53 | TAAGTACTGT | 1.23
54 | GATAAGTCCT | 1.03
55 | GATCGCATC | 2.14
56 | GAGTGTGAGC | 1.01
57 | TAGTATATGG | 1.04
58 | TGGTCACGT | 0.989
59 | CAAGTGTTT | 1.02
60 | CCAATAGCTT | 1.03
61 | TGGTATAG | 1
62 | TTATCAACGT | 1.01
63 | TGCCTCTGTC | 1.06
64 | CAGGGCTGTT | 1.02
65 | CCGTGAGACT | 1.25
66 | TTCGGCACCG | 0.976
67 | TAGTACGCTT | 1.03
68 | AACGTTTCCG | 0.955
69 | ATGAAGAGTT | 0.984

Row | Sequence | switch fluorescence ratio
70 | AAATTATAAC | 0.997
71 | CCCAGGAGAG | 1.49
72 | ACGAATTGCG | 1.02
73 | TATTATTTCG | 0.987
74 | TGTGGGTCAA | 0.972
75 | GCATAATTG | 1.01
76 | AAGGGTCGGG | 0.992
77 | ATTGTGGTAA | 0.992
78 | TTGTACA | 1.02
79 | TCGAAGTGGG | 0.992
80 | TTGCGCCTC | 0.984
81 | GGTATTTCA | 1.02
82 | GCGTGCAACA | 0.969
83 | GCCATGGACT | 1.03
84 | TGGAAGTGTG | 0.973
85 | CAGGCGCATA | 1.98
86 | CAGTGAGCAG | 0.947
87 | GGTCCCTTTA | 1.01
88 | AGGGTACTGG | 1.01
89 | GAGCAGGTAA | 1.12
90 | CCACAGTCTT | 1.37
91 | TGAAAGGACA | 1.01
92 | TAAGGTGGCG | 0.947

Row | Sequence | switch fluorescence ratio
93 | AGTTGTCGTT | 0.995
94 | TAGTGTGTGG | 1.03
95 | TAATACAGAC | 1.03
96 | TCAGACGTAA | 3.58
97 | GTCTCTCGA | 0.964
98 | CATTACTCTC | 1.07
99 | ATCAACCAGA | 1.03
100 | GGGTCGGTCG | 0.974
101 | GCCCCTGAGA | 1.08
102 | GGACACTTAT | 1.05
103 | CACTGGTGTC | 1.16
104 | ACCCGAGTG | 1.23
105 | GAATTCGGTG | 0.959
106 | GGGGCATTGC | 1.07
107 | GAGTATTGTT | 0.98
108 | GTGATGGGG | 1.02
109 | AAATTGTTAC | 1.05
110 | CTGGAATCAT | 1.01
111 | TTCCGGTCTG | 1.01
112 | AGTCTGAAAT | 0.944
113 | TTTGCAGCCA | 0.974
114 | AGAGGTTAAC | 1.03
115 | CCATAATCGT | 1.03

Row | Sequence | switch fluorescence ratio
116 | CGAGGGACAA | 1.2
117 | ACAAGCCATT | 1.05
118 | CATATTTTCT | 1.01
119 | CGGCAAACA | 1.18
120 | CGACGGGAGC | 1.1
121 | AACCGAGCTC | 1.57
122 | TTACCAGGTA | 1.07
123 | AGATACAGAC | 1.12
124 | CGCCTTAGGA | 1.01
125 | TGAGTGCATT | 0.992
126 | CGCGAGACCG | 1.1
127 | TCAGGGTCTG | 0.983
128 | AGGCAGAAAG | 1.01
129 | ACTTGCTGTA | 0.958
130 | TCTGCGGTA | 1.03
131 | GCCATGCGCG | 0.986
132 | CACTAAGTTG | 1.02
133 | AAAAGAGGTA | 1.08
134 | AATAGATGCG | 1.03
135 | ACTGATCTGC | 1.06
136 | TGCTCTCGGT | 0.979
137 | TAGAAAAAAA | 1.03
138 | AGCTTCCCAC | 1.47

Row | Sequence | switch fluorescence ratio
139 | TTGCTATTGG | 0.997
140 | CGACGACCTC | 1.88
141 | AACTTAGAAG | 1.01
142 | GGCTCCGGGT | 1.12
143 | ACCCTCCGAA | 5.56
144 | AGGAAACACT | 0.992
145 | GTTTAAAGA | 1.01
146 | GCTTAGGGTC | 1.01
147 | TTAACGCACC | 1.79
148 | ATTTGGAGCC | 1
149 | GGAGGGGTGG | 0.982
150 | TTATGTAATA | 1.12
151 | AGTATCAGTC | 0.955
152 | TCGAAGGTCC | 1.05
153 | GTGGATGACT | 1.03
154 | TTTCGTTTG | 1.02
155 | TTAGGGTTCA | 1.02
156 | AACGGATTTA | 0.992
157 | TCCCCATGGG | 1.11
158 | ATTTATATAA | 1.01
